The values below come from the supplement of paper PMC10723795.

Structures can show the parent of a compound that is named as a salt. This is one part of the list.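 Rule for the calls: active = more than 2 SD below the DMSO mean: under 0.85 at 10 µM or 0.885 at 1 µM; inactive = the rest.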 Most values come without repeats; read them as rough. Where a SMILES comes first, the peptide text is derived from it.

The test concerns RPE1. The experiment in a line: nucleolar normality score relative to DMSO (fraction of DMSO control); RPE1 is a non-cancer human cell line; higher = more normal nucleoli (less nucleolar stress). Particulars: 24 h.
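Note: fixed cells immunolabelled for nucleolin and UBF, 40 image fields per well in 384-well plates, per-cell score = nucleolin nucleolar/nucleoplasm intensity ratio divided by the matching UBF ratio.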

In the case of `CN1CCN(c2ccc(C(=O)Nc3n[nH]c4ccc(Cc5cc(F)cc(F)c5)cc34)c(NC3CCOCC3)c2)CC1` [Entrectinib (RXDX-101)], the nucleolar normality score is, setting by setting: (1 µM) inactive: 0.974; (10 µM) inactive: 1.06.

With `O=C(Nc1cccc(Cl)c1)Nc1ncc(CCNc2ncnc3ccsc23)s1`, the nucleolar normality score was inactive: 0.951 (1 µM) and inactive: 0.979 (10 µM).

With `CC(C)C(C(=O)O)N1C(=O)C(=Cc2ccc(Br)cc2)SC1=S` (configuration not stated), the nucleolar normality score by setting is: (1 µM) inactive: 0.964; (10 µM) inactive: 1.

In the case of `CNC(=O)CN1CCC(Oc2cc3c(Nc4cccc(Cl)c4F)ncnc3cc2OC)CC1` [Sapitinib (AZD8931)], the nucleolar normality score by setting is: (1 µM) inactive: 1.03; (10 µM) inactive: 1.01.

For the molecule `CCN1CCCC1CNC(=O)c1cc(S(=O)(=O)CC)c(N)cc1OC` (configuration not stated) [Amisulpride], the nucleolar normality score (1 µM) is inactive: 0.943 and the nucleolar normality score (10 µM) is inactive: 1.02.

As for `CCCS(=O)(=O)Nc1ccc(F)c(C(=O)c2c[nH]c3ncc(Cl)cc23)c1F`, the nucleolar normality score is, setting by setting: (1 µM) inactive: 1.03; (10 µM) inactive: 1.15.

For the molecule `O=C(O)CCn1c(O)c(C2=c3cc(Cl)ccc3=NC2=O)sc1=S`, the nucleolar normality score (1 µM) is inactive: 0.935 and the nucleolar normality score (10 µM) is inactive: 0.963.

On to `S=P(N1CC1)(N1CC1)N1CC1` [Thiotepa], for which the nucleolar normality score (1 µM) was inactive: 0.995 and the nucleolar normality score (10 µM) was inactive: 1.03.

For the molecule `O=C(Nc1cc(Cl)cc2c1[nH]c1cnccc12)c1cccnc1`, the nucleolar normality score reads like this: (1 µM) inactive: 0.961; (10 µM) inactive: 0.994.

For the molecule `Oc1cc(O)c2c(c1)OC(c1ccc(O)c(O)c1)C(O)C2` (single isomer, unassigned; (+)) [(+)-Catechin], the nucleolar normality score reads like this: (1 µM) inactive: 1.05; (10 µM) inactive: 0.905.

Take `COc1ccccc1OCCNCC(O)COc1cccc2[nH]c3ccccc3c12` (configuration not stated) [Carvedilol Phosphate]: the nucleolar normality score is, setting by setting: (1 µM) inactive: 0.942; (10 µM) inactive: 1.01.

As for `COc1ccc(CCCOC(Cn2ccnc2)c2ccc(OC)cc2)cc1` (configuration not stated), the nucleolar normality score runs as follows: (1 µM) inactive: 1.03; (10 µM) inactive: 1.05.

On to `CC(C)CC(NC(=O)C(Cc1ccccc1)NC(=O)C(CCC(N)=O)NC(=O)C(Cc1ccc(O)cc1)NC(=O)C(C)NC(=O)CNC(=O)C(CCCCN)NC(=O)C(Cc1c[nH]c2ccccc12)NC(=O)C(NC(=O)C(Cc1c[nH]c2ccccc12)NC(=O)C(CCCCN)NC(=O)CNC(=O)C(CC(N)=O)NC(=O)C(CCC(=O)O)NC(=O)C(Cc1c[nH]c2ccccc12)NC(=O)C(NC(=O)C(Cc1c[nH]c2ccccc12)NC(=O)C(CO)NC(=O)CNC(=O)C1CCCN1C(=O)C(Cc1c[nH]c2ccccc12)NC(=O)C(CCC(N)=O)NC(=O)C(Cc1ccccc1)NC(=O)CNC(=O)C(N)Cc1c[nH]cn1)C(C)O)C(C)O)C(=O)NC(CCCCN)C(=O)NCC(=O)NCC(=O)NCC(=O)NCC(=O)NC(CO)C(=O)NC(CCCNC(=N)N)C(=O)NC(CCCNC(=N)N)C(=O)NC(CCCNC(=N)N)C(=O)NC(CCCNC(=N)N)C(=O)NC(CCCNC(=N)N)C(=O)NC(CCCNC(=N)N)C(=O)NC(CCCNC(=N)N)C(=O)NC(CCCNC(=N)N)C(=O)NC(CCCNC(=N)N)C(=O)O` (configuration not stated) (H-HGFQWPGSWTWENGKWTWKGAYQFLKGGGGSRRRRRRRRR-OH; configuration not given here), for which the nucleolar normality score (1 µM) is inactive: 0.937 and the nucleolar normality score (10 µM) is inactive: 1.06.

For `COC(=O)c1ccc(O)c(O)c1` [Methyl protocatechuate], the nucleolar normality score runs as follows: (1 µM) inactive: 1.01; (10 µM) inactive: 0.878.

On to `Cn1cncc1[C@@](N)(c1ccc(Cl)cc1)c1ccc2c(c1)c(-c1cccc(Cl)c1)cc(=O)n2C` [Tipifarnib], for which the nucleolar normality score is inactive: 1.08 (1 µM) and inactive: 1.13 (10 µM).

On to `C[C@@H]1O[C@@H](O[C@H]2[C@H](O[C@H]3CC[C@@]4(C)[C@@H](CC[C@]5(C)[C@@H]4CC=C4[C@@H]6CC(C)(C)CC[C@]6(C(=O)O[C@@H]6O[C@H](CO[C@@H]7O[C@H](CO)[C@@H](O)[C@H](O)[C@H]7O)[C@@H](O)[C@H](O)[C@H]6O)CC[C@]45C)[C@]3(C)CO)OC[C@H](O)[C@@H]2O)[C@H](O)[C@H](O[C@@H]2O[C@H](CO)[C@@H](O[C@@H]3O[C@H](CO)[C@@H](O)[C@H](O)[C@H]3O)[C@H](O)[C@H]2O)[C@H]1O` [Macranthoidin B], for which the nucleolar normality score by setting is: (1 µM) inactive: 1.07; (10 µM) inactive: 1.08.

Turning to `O=c1[nH]c(=O)n([C@H]2C[C@H](O)[C@@H](CO)O2)cc1C(F)(F)F` [Trifluridine], the nucleolar normality score (1 µM) was inactive: 0.937 and the nucleolar normality score (10 µM) is inactive: 0.941.

For the molecule `Cc1cc(F)c(Nc2ncnc3cc(OCc4ccccc4)ccc23)cc1O`, the nucleolar normality score is inactive: 0.907 (1 µM) and active: 0.722 (10 µM).

`CC(C)n1cnc2c(NCCc3ccc(O)cc3)nc(-c3csc4ccccc34)nc21` [StemRegenin 1 (SR1)]: the nucleolar normality score (1 µM) was inactive: 1.12 and the nucleolar normality score (10 µM) is inactive: 1.17.

For the molecule `O=C(NNc1ccccc1)c1ccncc1`, the nucleolar normality score is, setting by setting: (1 µM) inactive: 0.951; (10 µM) inactive: 0.971.

As for `O=C1OC(=O)[C@H]2[C@@H]1[C@@H]1CC[C@H]2O1` [Norcantharidin], the nucleolar normality score (1 µM) is inactive: 1.04 and the nucleolar normality score (10 µM) was inactive: 1.07.

Turning to `O=C(NCCCNc1nc(Nc2cccc(NC(=O)N3CCCC3)c2)ncc1I)c1cccs1`, the nucleolar normality score (1 µM) was inactive: 0.889 and the nucleolar normality score (10 µM) is inactive: 0.963.

For `Cc1cccc(-c2[nH]ncc2-c2ccc3ncccc3n2)n1`, the nucleolar normality score was inactive: 1.01 (1 µM) and inactive: 1.04 (10 µM).

`Cc1ccccc1C(=O)Nc1ccc(C(=O)N2CCCC(N(C)C)c3ccccc32)cc1` (configuration not stated) [Mozavaptan]: the nucleolar normality score (1 µM) is inactive: 1.06 and the nucleolar normality score (10 µM) was active: 0.832.

For the molecule `C=C[C@@](C)(/C=C/c1ccc(O)cc1)CCC=C(C)C` [Bakuchiol], the nucleolar normality score reads like this: (1 µM) inactive: 0.934; (10 µM) inactive: 0.892.

As to `NS(=O)(=O)c1ccc(NC(=O)Nc2ccc(F)cc2)cc1`, the nucleolar normality score by setting is: (1 µM) inactive: 1.07; (10 µM) inactive: 0.911.

On to `CCCCCCCCNC(C)C(O)c1ccc(SC(C)C)cc1` (configuration not stated) [Suloctidil], for which the nucleolar normality score is, setting by setting: (1 µM) inactive: 1.03; (10 µM) inactive: 1.01.

For the molecule `C=C(C)[C@@H]1CC[C@]2(C)CC[C@]3(C)[C@H](CC[C@@H]4[C@@]5(C)CC[C@H](O)C(C)(C)[C@@H]5CC[C@]43C)[C@@H]12` [Lupeol], the nucleolar normality score was inactive: 0.974 (1 µM) and inactive: 1.01 (10 µM).

With `S=c1[nH]cnc2nc[nH]c12` [Mercaptopurine (6-MP)], the nucleolar normality score (1 µM) was inactive: 1.02 and the nucleolar normality score (10 µM) was inactive: 1.05.

For the molecule `COc1cc2c(cc1OC)[C@@H]1C(=O)c3ccc4c(c3O[C@@H]1CO2)C=CC(C)(C)O4` [Deguelin], the nucleolar normality score was inactive: 1.02 (1 µM) and inactive: 0.984 (10 µM).

Consider `CCCCCCOc1cc(C)c(O)c(C)c1C` [HTHQ(1-O-Hexyl-2,3,5-trimethylhydroquinone)], for which the nucleolar normality score is, setting by setting: (1 µM) inactive: 1.05; (10 µM) inactive: 1.02.

Consider `COc1ccc(OC)c(C2C(C#N)=C(N)Oc3n[nH]c(-c4ccc5ccccc5c4)c32)c1` (configuration not stated), for which the nucleolar normality score runs as follows: (1 µM) inactive: 0.988; (10 µM) inactive: 0.943.

For the molecule `Oc1nc(-c2ccc(C(F)(F)F)cc2)nc2c1CSCC2`, the nucleolar normality score (1 µM) is inactive: 0.993 and the nucleolar normality score (10 µM) is inactive: 1.05.

Consider `COc1ccc(CCc2nc3cc(-c4c(C)noc4C)ccc3n2C[C@H](C)N2CCOCC2)cc1Cl`, for which the nucleolar normality score (1 µM) is inactive: 1.03 and the nucleolar normality score (10 µM) was inactive: 1.07.

`CNCc1ccc(-c2[nH]c3cc(F)cc4c3c2CCNC4=O)cc1`: the nucleolar normality score reads like this: (1 µM) inactive: 0.996; (10 µM) inactive: 1.08.

Consider `CCNC(=O)c1noc(-c2cc(C(C)C)c(O)cc2O)c1-c1ccc(CN2CCOCC2)cc1` [Luminespib (AUY-922, NVP-AUY922)], for which the nucleolar normality score by setting is: (1 µM) active: 0.317; (10 µM) active: 0.31.

For `CC(=O)c1cc([N+](=O)[O-])c(Sc2ccc(F)cc2F)s1`, the nucleolar normality score runs as follows: (1 µM) active: 0.857; (10 µM) inactive: 0.943.

`COc1cc(O)cc(O)c1C(=O)C=Cc1ccccc1` [Cardamonin]: the nucleolar normality score runs as follows: (1 µM) inactive: 1.03; (10 µM) inactive: 0.91.

Consider `N=C1CCCN1Cc1[nH]c(=O)[nH]c(=O)c1Cl.O=c1[nH]c(=O)n([C@H]2C[C@H](O)[C@@H](CO)O2)cc1C(F)(F)F`, for which the nucleolar normality score (1 µM) was inactive: 0.96 and the nucleolar normality score (10 µM) is inactive: 0.973.

Regarding `Cc1c(NC(=O)OC[C@@H]2COCCN2)cn2ncnc(Nc3ccc4c(cnn4Cc4cccc(F)c4)c3)c12`, the nucleolar normality score (1 µM) was inactive: 1.06 and the nucleolar normality score (10 µM) is inactive: 1.12.

For the molecule `Cc1ccc2nc(NCCN)c3ncc(C)n3c2c1`, the nucleolar normality score (1 µM) was inactive: 0.959 and the nucleolar normality score (10 µM) was inactive: 0.995.

For `CN1CCC(CNc2ccc3ncc(-c4cccc(OC(F)(F)F)c4)n3n2)CC1` [SGI-1776 free base], the nucleolar normality score runs as follows: (1 µM) inactive: 1.05; (10 µM) inactive: 1.14.

With `C[C@H]1COC2(CCN(c3nc(=O)c4cc(C(F)(F)F)cc([N+](=O)[O-])c4s3)CC2)O1` (racemic) [BTZ043 Racemate], the nucleolar normality score (1 µM) is inactive: 1.01 and the nucleolar normality score (10 µM) is inactive: 1.04.

For the molecule `COc1cc(C(=O)NC2CCN(C)CC2)ccc1Nc1ncc2c(n1)N(C1CCCC1)CC(F)(F)C(=O)N2C`, the nucleolar normality score was inactive: 0.933 (1 µM) and inactive: 0.998 (10 µM).

`O=C(NCc1cccc(O)c1)Nc1nc(-c2ccncc2)cs1`: the nucleolar normality score is inactive: 0.898 (1 µM) and inactive: 1.02 (10 µM).

As to `COc1c(C)c2c(c(O)c1C/C=C(\C)CCC(=O)OCCN1CCOCC1)C(=O)OC2` [Mycophenolate Mofetil], the nucleolar normality score is inactive: 1.04 (1 µM) and inactive: 1.11 (10 µM).

For `C#CC1(O)CC[C@H]2[C@@H]3CCC4=CC(=O)CC[C@@H]4[C@H]3CC[C@@]21CC` (mixture of isomers) [Norgestrel], the nucleolar normality score is inactive: 1.03 (1 µM) and inactive: 1.04 (10 µM).

Turning to `Cn1cc(/C=C/C(=O)c2cccc(F)c2)cc1/C=C/C(=O)NO`, the nucleolar normality score (1 µM) was inactive: 1.04 and the nucleolar normality score (10 µM) is inactive: 1.1.

In the case of `C[C@@H](Nc1nc(N[C@H](C)C(F)(F)F)nc(-c2cccc(Cl)n2)n1)C(F)(F)F` [Vorasidenib (AG-881)], the nucleolar normality score runs as follows: (1 µM) inactive: 1.03; (10 µM) inactive: 1.04.

Consider `COc1nc(C)cnc1NS(=O)(=O)c1cccnc1-c1ccc(-c2nnco2)cc1` [Zibotentan (ZD4054)], for which the nucleolar normality score is, setting by setting: (1 µM) inactive: 0.984; (10 µM) inactive: 1.05.

`Cn1cc(C2=C(c3cn(CCCSC(=N)N)c4ccccc34)C(=O)NC2=O)c2ccccc21` [Bisindolylmaleimide IX (Ro 31-8220 Mesylate)]: the nucleolar normality score (1 µM) is inactive: 0.967 and the nucleolar normality score (10 µM) is inactive: 1.03.
